The source of these data is patent publication US20190367516A1 (Bayer Pharma Aktiengesellschaft, priority 2015, published 2019).

The assay has as its target T1, human M2 receptor (Homo sapiens, UniProt P08172).
T1 sequence (P08172 1-466): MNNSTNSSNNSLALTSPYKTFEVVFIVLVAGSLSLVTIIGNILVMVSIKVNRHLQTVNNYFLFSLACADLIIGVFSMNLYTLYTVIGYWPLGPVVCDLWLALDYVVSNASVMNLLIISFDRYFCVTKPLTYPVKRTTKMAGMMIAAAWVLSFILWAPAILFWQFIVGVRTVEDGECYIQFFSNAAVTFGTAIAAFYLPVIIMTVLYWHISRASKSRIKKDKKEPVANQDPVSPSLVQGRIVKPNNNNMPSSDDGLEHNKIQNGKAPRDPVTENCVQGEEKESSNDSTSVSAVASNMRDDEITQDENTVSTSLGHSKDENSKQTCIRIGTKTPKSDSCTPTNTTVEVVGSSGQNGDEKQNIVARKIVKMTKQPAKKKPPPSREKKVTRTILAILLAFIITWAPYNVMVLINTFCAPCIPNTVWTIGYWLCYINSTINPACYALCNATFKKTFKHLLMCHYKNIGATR
Conditions: read-out: Efficiency, M2-GIRK1/4 activation test; boosting of the acetylcholine effect at an EC20 acetylcholine concentration.

For `CC[C@@H](NC(=O)c1cn(-c2ccc(F)cc2F)c2nc(N3CCC4(C3)CC4(F)F)ccc2c1=O)C(F)(F)F` (mixture of isomers) [Example 29, 7-(1,1-Difluoro-5-azaspiro[2.4]hept-5-yl)-1-(2,4-difluorophenyl)-4-oxo-N-[(2R)-1,1,1-trifluorobutan-2-yl]-1,4-dihydro-1,8-naphthyridine-3-carboxamide (diastereomer mixture)], the Emax turned out to be 95.3%.

Turning to `CC[C@@H](NC(=O)c1cn(-c2ccc(F)cc2F)c2nc(N3CCC(C)(F)C3)ccc2c1=O)C(F)(F)F` (mixture of isomers) [Example 30, 1-(2,4-Difluorophenyl)-7-(3-fluoro-3-methylpyrrolidin-1-yl)-4-oxo-N-[(2R)-1,1,1-trifluorobutan-2-yl]-1,4-dihydro-1,8-naphthyridine-3-carboxamide (diastereomer mixture)], the Emax was determined as 93.3%.

For the molecule `CC[C@@H](NC(=O)c1cn(-c2ccc(F)cc2F)c2nc(N3CCC(O)(O)C(F)C3)ccc2c1=O)C(F)(F)F` (mixture of isomers) [Example 34, 1-(2,4-Difluorophenyl)-7-[3-fluoro-4,4-dihydroxypiperidin-1-yl]-4-oxo-N-[(2R)-1,1,1-trifluorobutan-2-yl]-1,4-dihydro-1,8-naphthyridine-3-carboxamide (diastereomer mixture)], the Emax amounted to 99.7%.

As for `CC[C@@H](NC(=O)c1cn(-c2ccc(F)cc2F)c2nc(N3CCC(C)(OC)C3)ccc2c1=O)C(F)(F)F` (mixture of isomers) [Example 191, 1-(2,4-Difluorophenyl)-7-[3-methoxy-3-methylpyrrolidin-1-yl]-4-oxo-N-[(2R)-1,1,1-trifluorobutan-2-yl]-1,4-dihydro-1,8-naphthyridine-3-carboxamide], the Emax worked out at 85.3%.

On to `O=C(NC1(C(F)(F)F)CCOC1)c1cn(-c2ccc(F)cc2F)c2nc(N3C[C@@H](O)CC3=O)ccc2c1=O` (mixture of isomers) [Example 238, 1-(2,4-Difluorophenyl)-7-[(4S)-4-hydroxy-2-oxopyrrolidin-1-yl]-4-oxo-N-[3-(trifluoromethyl)tetrahydrofuran-3-yl]-1,4-dihydro-1,8-naphthyridine-3-carboxamide], for which the Emax was 92.3%.

In the case of `CC[C@@H](NC(=O)c1cn(-c2ccc(F)cc2F)c2nc(N3CC(C)OC3=O)ccc2c1=O)C(F)(F)F` (mixture of isomers) [Example 266, 1-(2,4-Difluorophenyl)-7-[5-methyl-2-oxo-1,3-oxazolidin-3-yl]-4-oxo-N-[(2R)-1,1,1-trifluorobutan-2-yl]-1,4-dihydro-1,8-naphthyridine-3-carboxamide], the Emax is 100%.

With `O=C(NC(c1cccc(F)c1)C(F)(F)F)c1cn(-c2ccc(F)cc2F)c2nc(N3C[C@@H](O)CC3=O)ccc2c1=O` (mixture of isomers) [Example 272, 1-(2,4-Difluorophenyl)-7-[(4S)-4-hydroxy-2-oxopyrrolidin-1-yl]-4-oxo-N-[2,2,2-trifluoro-1-(3-fluorophenyl)ethyl]-1,4-dihydro-1,8-naphthyridine-3-carboxamide], the Emax was determined as 98%.

On to `O=C(NC(c1ccc(F)cc1)C(F)(F)F)c1cn(-c2ccc(F)cc2F)c2nc(N3C[C@@H](O)CC3=O)ccc2c1=O` (mixture of isomers) [Example 273, 1-(2,4-Difluorophenyl)-7-[(4S)-4-hydroxy-2-oxopyrrolidin-1-yl]-4-oxo-N-[2,2,2-trifluoro-1-(4-fluorophenyl)ethyl]-1,4-dihydro-1,8-naphthyridine-3-carboxamide], for which the Emax worked out at 100%.

In the case of `O=C(NC(c1cccc(Cl)c1)C(F)(F)F)c1cn(-c2ccc(F)cc2F)c2nc(N3C[C@@H](O)CC3=O)ccc2c1=O` (mixture of isomers) [Example 274, N-[1-(3-Chlorophenyl)-2,2,2-trifluoroethyl]-1-(2,4-difluorophenyl)-7-[(4S)-4-hydroxy-2-oxopyrrolidin-1-yl]-4-oxo-1,4-dihydro-1,8-naphthyridine-3-carboxamide], the Emax came out at 99.8%.

For `O=C(NC(C1CC1)C(F)(F)F)c1cn(-c2ccccc2Cl)c2nc(N3C[C@@H](O)CC3=O)ccc2c1=O` (mixture of isomers) [Example 279, 1-(2-Chlorophenyl)-N-[1-cyclopropyl-2,2,2-trifluoroethyl]-7-[(4S)-4-hydroxy-2-oxopyrrolidin-1-yl]-4-oxo-1,4-dihydro-1,8-naphthyridine-3-carboxamide], the Emax was found to be 92.5%.

Take `CC1(F)CCN(c2ccc3c(=O)c(C(=O)NC45CC6CC(CC(C6)C4)C5)cn(-c4ccc(F)cc4F)c3n2)C1` (racemic) [Example 9, rac-1-(2,4-Difluorophenyl)-7-(3-fluoro-3-methylpyrrolidin-1-yl)-4-oxo-N-(tricyclo[3.3.1.1^3,7]dec-1-yl)-1,4-dihydro-1,8-naphthyridine-3-carboxamide]: the Emax was 96.5%.

Take `O=C(NC12CC3CC(CC(C3)C1)C2)c1cn(-c2ccc(F)cc2F)c2nc(N3CCCC(O)C3)ccc2c1=O` (racemic) [Example 14, rac-1-(2,4-Difluorophenyl)-7-(3-hydroxypiperidin-1-yl)-4-oxo-N-(tricyclo[3.3.1.1^3,7]dec-1-yl)-1,4-dihydro-1,8-naphthyridine-3-carboxamide]: the Emax is 97.7%.

For the molecule `CCC(NC(=O)c1cn(-c2ccc(F)cc2F)c2nc(N3CCN(C(=O)OC)CC3)ccc2c1=O)C(F)(F)F` (racemic) [Example 23, rac-Methyl 4-{8-(2,4-difluorophenyl)-5-oxo-6-[(1,1,1-trifluorobutan-2-yl)carbamoyl]-5,8-dihydro-1,8-naphthyridin-2-yl}piperazine-1-carboxylate], the Emax stood at 99.3%.

As to `CCC(NC(=O)c1cn(-c2ccc(F)cc2F)c2nc(N3CC(CO)C3)ccc2c1=O)C(F)(F)F` (racemic) [Example 26, rac-1-(2,4-Difluorophenyl)-7-[3-(hydroxymethyl)azetidin-1-yl]-4-oxo-N-[1,1,1-trifluorobutan-2-yl]-1,4-dihydro-1,8-naphthyridine-3-carboxamide], the Emax is 97%.

On to `CC(CC(F)(F)F)NC(=O)c1cn(-c2ccc(F)cc2F)c2nc(N(C)C)ccc2c1=O` (racemic) [Example 46, rac-1-(2,4-Difluorophenyl)-7-(dimethylamino)-4-oxo-N-[4,4,4-trifluorobutan-2-yl]-1,4-dihydro-1,8-naphthyridine-3-carboxamide], for which the Emax was found to be 98.7%.

For the molecule `CN(C)c1ccc2c(=O)c(C(=O)NC(c3ccccc3Cl)C(F)(F)F)cn(-c3ccc(F)cc3F)c2n1` (racemic) [Example 48, rac-N-[1-(2-Chlorophenyl)-2,2,2-trifluoroethyl]-1-(2,4-difluorophenyl)-7-(dimethylamino)-4-oxo-1,4-dihydro-1,8-naphthyridine-3-carboxamide], the Emax was determined as 94.8%.

For the molecule `CN(C)c1ccc2c(=O)c(C(=O)NC(c3c(Cl)cccc3Cl)C(F)(F)F)cn(-c3ccc(F)cc3F)c2n1` (racemic) [Example 56, rac-N-[1-(2,6-Dichlorophenyl)-2,2,2-trifluoroethyl]-1-(2,4-difluorophenyl)-7-(dimethylamino)-4-oxo-1,4-dihydro-1,8-naphthyridine-3-carboxamide], the Emax is 100%.

Turning to `CCC(NC(=O)c1cn(-c2ccc(F)cc2F)c2nc(N3CCC(F)(F)C3)ccc2c1=O)C(F)(F)F` (racemic) [Example 74, rac-1-(2,4-Difluorophenyl)-7-(3,3-difluoropyrrolidin-1-yl)-4-oxo-N-[1,1,1-trifluorobutan-2-yl]-1,4-dihydro-1,8-naphthyridine-3-carboxamide], the Emax stood at 87%.

With `CCCC(NC(=O)c1cn(-c2ccc(F)cc2F)c2nc(N3CCC(F)(F)C3)ccc2c1=O)C(F)(F)F` (racemic) [Example 76, rac-1-(2,4-Difluorophenyl)-7-(3,3-difluoropyrrolidin-1-yl)-4-oxo-N-[1,1,1-trifluoropentan-2-yl]-1,4-dihydro-1,8-naphthyridine-3-carboxamide], the Emax came to 96%.

Consider `CCC(NC(=O)c1cn(-c2ccc(F)cc2F)c2nc(NCCF)ccc2c1=O)C(F)(F)F` (racemic) [Example 85, rac-1-(2,4-Difluorophenyl)-7-[(2-fluoroethyl)amino]-4-oxo-N-[1,1,1-trifluorobutan-2-yl]-1,4-dihydro-1,8-naphthyridine-3-carboxamide], for which the Emax came out at 98.5%.

For `CCCC(NC(=O)c1cn(-c2ccc(F)cc2F)c2nc(NCCF)ccc2c1=O)C(F)(F)F` (racemic) [Example 86, rac-1-(2,4-Difluorophenyl)-7-[(2-fluoroethyl)amino]-4-oxo-N-[(2R)-1,1,1-trifluoropentan-2-yl]-1,4-dihydro-1,8-naphthyridine-3-carboxamide], the Emax is 94.5%.

Turning to `CC(C)CC(NC(=O)c1cn(-c2ccc(F)cc2F)c2nc(NCC(F)(F)F)ccc2c1=O)C(F)(F)F` (racemic) [Example 95, rac-1-(2,4-Difluorophenyl)-4-oxo-7-[(2,2,2-trifluoroethyl)amino]-N-[1,1,1-trifluoro-4-methylpentan-2-yl]-1,4-dihydro-1,8-naphthyridine-3-carboxamide], the Emax is 90%.

As to `CC(NC(=O)c1cn(-c2ccc(F)cc2F)c2nc(N(C)CC(F)(F)F)ccc2c1=O)C(F)(F)F` (racemic) [Example 99, rac-1-(2,4-Difluorophenyl)-7-[methyl(2,2,2-trifluoroethyl)amino]-4-oxo-N-[1,1,1-trifluoropropan-2-yl]-1,4-dihydro-1,8-naphthyridine-3-carboxamide], the Emax is 92.7%.
